Source: the supplement of paper PMC11417369
± gives the standard deviation of the averaged measurements. Some of the results follow.

The sequences below were run on PfAP2-G AP2 domain (GST-tagged) (assay: gcPBM binding intensity (ln(normalized median fluorescence intensity)); higher = stronger DNA binding).
Procedure, shortened: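 In this array assay, P. falciparum DNA-binding domains with a GST tag, expressed in E. coli, were applied for 1 h to primer-extended double-stranded 36-bp intergenic genomic probes and negative controls on an Agilent 4 × 180k array. Bound protein was visualised with Alexa488 anti-GST antibody at 488 nm. Binding intensity is the highest Masliner-normalised natural-log median intensity across replicate spots of either probe orientation.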

Sequence	gcPBM binding intensity (ln)
TACAATATAAAATACACACGCACACCGAAAAAAAAA [CACACA_site5865]	10.4 ± 0.36
TTATGTTGTAAATGCACACATACAAATACATATACA [CACACA_site1368]	10.2 ± 0.17
ATTTAATATCACAATATATTTTTTACCCTTATCAGC [CACACA_negctrl_site491]	9.7 ± 0.28
ATTTATTAAAAGAAATGTACAGAAAATGTTTGGAAT [XGTACX_site7187]	11 ± 0.49
AAGAAAAAAAAGATAATAATAATAATAATAAAATGA [TGCATGCA_negctrl_site398]	9.7 ± 0.13
TGGTAAATTGAGAATCGTACATTAAAAAACATAAAA [XGTACX_site3253]	11.2 ± 0.77
GGAATGGTACATGATACACACACGCACATATAAATA [CACACA_site7581]	10.8 ± 0.51
TATATGGTATGTATTACACACATATCACATATATAT [CACACA_site3045]	9.98 ± 0.099
GAGGGAAAAAATAATCGTACAAAGAAAAAAAAAAAT [XGTACX_site7361]	11.1 ± 0.69
TATATTCTTTTTTTAACACACAAAAAAAATAAAATA [CACACA_site1898]	9.99 ± 0.29
AAAAAAATTAAAGATTGTACTTGATTTTTCATTTTA [XGTACX_site6685]	11 ± 0.71
TAAAAAATAAAATACACACACATATATATATATATA [CACACA_site1323]	9.93 ± 0.31
AAAGAATTGTATAAAAGTACATATTTGTTTGTTTTA [XGTACX_site7380]	11.2 ± 0.81
TTTTTTTCATAAATTAGGTAATGTCGCAGGGGGACA [TGCATGCA_negctrl_site556]	11.5 ± 0.91
TATTTAAAAACAAAAAGTACTAATATATATTTATAC [XGTACX_site1422]	11 ± 0.75
TATATATTATATATATGTACTTATTCATATATATAA [XGTACX_site3860]	11.2 ± 1
CTTTAATATATTTAAGTGCAAAACTAATATGTAAAG	10.2 ± 0.15
AAAGAAAAAGAAAAAGAAAAAATAAAATAAAATAAA [CACACA_negctrl_site872]	9.59
GACTGAACAACATAATGTACATTTATAAGTATATAT [XGTACX_site3813]	10.9 ± 0.52
AGTAGTATGGAGAAAAGTACATAGTATCTGATAACC [XGTACX_site2040]	11.3 ± 0.88
TCAAAACATTATTCCATACACACCATACTTTTTAAT [CACACA_site2770]	10.18 ± 0.078
GAATTATAAATTATAGTGCATAAAATTATGGCATAA [GTGCAC_site9938]	9.99 ± 0.14
TTGAATTATAAGAATAAACACACAAGCTTAAAAAAA [CACACA_site8318]	9.93 ± 0.042

Sequence	gcPBM binding intensity (ln)
TATTTAAATTTGTATAATGGACGAATTATATAGAAA [GTGCAC_negctrl_site650]	10.6 ± 0.54
CCCACAGACGGACACACACACATATATATATATATA [CACACA_site4351]	11.6 ± 1.2
ATATAATATATATATAAACACACAAAAAAAATTATA [CACACA_site8434]	10.125 ± 0.007
AATAAAATCATCTATACACACAAAAAAAATAAGAAA [CACACA_site2101]	9.965 ± 0.049
TTAAGAAACAAAGAAAGTACACAACATAATATAGAA [XGTACX_site477]	11.4 ± 0.69
AATAACCACGGACACACACACATATATATATATATA [CACACA_site5873]	11.2 ± 0.78
ATTATAATACTTTGTATGCACTAATCAATTATTAAA	10.1 ± 0.28
ACATAAAATTGGAGCAAACACACAAGGTTGAAATTA [CACACA_site505]	9.91 ± 0.15
TTTGTTATGGTTTTCTCACACATATATATATATATA [CACACA_site4617]	10.3 ± 0.39
CCGATATAATGGAAAACACACAAAAGATATTTATAT [CACACA_site7293]	9.88
TACAACCTTATAATTAGTACTTAGTTATGCTGTAAA [XGTACX_site6052]	10.8 ± 0.46
TTTAATTTTTTTTATAGTACATAAAAAATAAAAAAA [XGTACX_site5631]	11.2 ± 0.83
TTTATTTGTGCATATACACACTTAAATATGTTTATT [CACACA_site7772]	10.1 ± 0.13
CTGTAAAAAATATAAACACACATAGAAATATATAAA [CACACA_site340]	9.84 ± 0.099
CCTCATAAGTTCTTATGTACGTATTGTTCACCTTTA [XGTACX_site6640]	11.6 ± 0.84
ATAATAAAAAAAAATGCACACATATATATATATATA [CACACA_site8766]	10.1 ± 0.64
AATTTTAAGAGCTATACATGCACTTCATAAAAAGTG [TGCATGCA_site180]	10.5 ± 0.42
TTAATATTTAGACATGCATGCTAATTACTATATATA [TGCATGCA_site27]	9.725 ± 0.007
AATATATATATATATACACACACACCGATATATATA [CACACA_site8158]	9.9 ± 0.028
TAACAATTAATAAAAGGTACACTTGAATATGCACCA [XGTACX_site2717]	11.2 ± 0.73
TTATAATATATATACAGTACATATATAAAATAATAT [XGTACX_site5917]	10.8 ± 0.5
TAATATAAAGAAAAGGAACACACAAATATATATATA [CACACA_site8049]	9.9 ± 0.26
TTTTCTTGGTTCAGTGTGCACTTATATATATATATA	10.6 ± 0.39

Sequence	gcPBM binding intensity (ln)
TTATTTTATAATAAAAGTACACAAAAAAAAAAAAAA [XGTACX_site7668]	11.4 ± 1.1
TTATTTCTCTTTTCAGTGCATTTTATAACAAAAAAA [GTGCAC_site9930]	10.3 ± 0.34
ATATATATAATATGCGGTACACATTAATTAAATCAT [XGTACX_site5702]	11.2 ± 0.67
TTATAAATATAAAAATGTACAGAAAAAAAAAATAAA [XGTACX_site863]	11.1 ± 0.79
ATAGAACTATATTGCACACATAATATATATATATAT [CACACA_site3189]	10.2 ± 0.17
GTAAAAAATATGACAAGTACAAGAAAAGAAAAAAGT [XGTACX_site7906]	11.3 ± 0.7
AAAAGATTTATACATACACACATATTATATTCACAT [CACACA_site3713]	9.93 ± 0.2
TTTCAAAAATGAGTTACACACACACGGATATAAATA [CACACA_site7116]	10.2 ± 0.2
GAATATAAAATATATATATATATATATATATATATA [GTGCAC_negctrl_site425]	9.7 ± 0.56
GTAGAGCATAATAAAACACACACATACATACATATA [CACACA_site8217]	10.025 ± 0.007
TTATTGCATTGTTTTTATAAAAAAAAAAAAAAAATT [XGTACX_negctrl_site104]	9.84 ± 0.16
CTATTTCATGGACACACACACACAAACAAACATATA [CACACA_site4696]	11 ± 0.67
ATATATTATATAAAGTGTACAAAAAAAATATATAAA [XGTACX_site8065]	11.2 ± 0.72
TAATTATGCAGACACACACACACACCCAACTAAAAA [CACACA_site2569]	10.3 ± 0.23
TATTTATTGTGATACTTATATTACTTAATGATTAAA [CACACA_negctrl_site676]	10.2 ± 0.33
TTTCTTGCTACATGAAGTACACTTTCTATGACTCGT [XGTACX_site5583]	11.5 ± 0.76
ATTAATAAGAAATATACACACATGGATAAATACATA [CACACA_site1872]	9.975 ± 0.007
TGTGTTCAGTATTGCACACACACAACAAAATAAAAA [CACACA_site8017]	10.4 ± 0.33
ATATATATTTTATTCACACATAAGATTATAAAACAT [CACACA_site5369]	9.86 ± 0.071
TATGATATAATTATGTGTACACAATTTTTTTTTTTT [XGTACX_site1084]	11.6 ± 0.8
AAAAAAAAGGAAATAACACACATGTATTTATTTATA [CACACA_site4966]	9.905 ± 0.021
CGATACTTTAGGTGTACACAAATATACATGAATGAG [CACACA_site5189]	11.6 ± 0.84
CTTTAAAACCGGTACTGTACACATAGTATTATTATC [XGTACX_site2602]	11.6 ± 0.8

Sequence	gcPBM binding intensity (ln)
ATAATAATAATATAACCAAGGAAATATAATATTTGT [XGTACX_negctrl_site485]	10 ± 0.099
TTATTATAAATGTTTTGTACGTACATCCGAAAATAA [XGTACX_site2175]	11.7 ± 1.2
TATAATCATATTAAGGGTACATATGTGTAAATATTT [XGTACX_site6018]	11.2 ± 0.65
AAAAATAAAAAAAGCACACACATATATATATATATA [CACACA_site1885]	10.2 ± 0.69
AAAAAAAAATTATTCACACATATATATATATATATA [CACACA_site5579]	9.9 ± 0.46
GAACCATAAGGAACGACACACAAAGATAAATAAATA [CACACA_site3472]	10.06 ± 0.099
AAACAATCTAAAAGTAGTACAATAAAAATATATATA [XGTACX_site5607]	11.5 ± 1.1
AAATTTGCTTTTATTTTACACACTTGCTCCTGTTGT [CACACA_site8276]	10.04 ± 0.064
ATAATATTTTAATGCACACACACAAAAAAAAAAAAA [CACACA_site2891]	10.2 ± 0.46
AATATTTTATTTTGGGTGCAAAAGAATATTATTTCA	10.1 ± 0.3
TATATATATATATTACGTACATAGAACTTTATAAAA [XGTACX_site4485]	11.5 ± 0.98
TGATATTTACAAATATTAAGATCTTATATTTTTTTT [CACACA_negctrl_site617]	9.48 ± 0.28
GTGTGAAACATAAACACACACAAAAAGAAAAAATAG [CACACA_site1227]	10.02 ± 0.035
AATATAAATATTAAAACACACATAAAAAGATTATTA [CACACA_site1764]	9.725 ± 0.078
TATTACATAATACAAAGTACATATATTTTTTTATTT [XGTACX_site7061]	10.9 ± 0.59
GTATATATATATATATGTACTAATTAGTAGTTTACG [XGTACX_site6274]	11 ± 0.56
ATATTTATACATAAATGTACTTTTATATATTTAATA [XGTACX_site3020]	11.1 ± 0.8
AATATTATAAATGATACACACTTAAAATACACGCAC [CACACA_site7305]	10.4 ± 0.31
AGCACATATATATTATGTACATATAACTTCCCAGTG [XGTACX_site7095]	11.2 ± 0.62
ATTTATTAATATCCCAGTACTCATGGGGAATAATGA [XGTACX_site4014]	11.1 ± 0.74
